Laboratory results published in US20030144473A1, “Peptides for the production of preparations for the diagnosis and therapy of autoimmun diseases” (priority 1992, published 2003).

Test system: autoantibodies (anti-histone IgG-autoantibodies) of rheumatic and SLE sera
Assay: ELISA of patient sera on histone peptides (indirect ELISA, sera diluted 1 to 250)
Format: binding, human
Procedure: Dependent on the purpose of the test eltzher the antibody to be tested (in a direct ELISA or sandwich test) or the antigen (in an indirect ELISA) were bound to the surface of the microtitration plate. The antigens were dissolved with a concentration 50 μg/ml in a 0.05 M carbonate buffer, pH 9.7. Antibody solutions, supernatant liquid from cells and urine samples were diluted 1 to 3 in the same buffer and in each case 100 μl were pipetted onto the microtitration plate. Linking took place for 24 hours at 4° C. After emptying the dishes on the following day reactive groups of the microtitration plate were blocked at 36° C. with 250 μl of blocking solution per dish. For this different blocking solutions were employed: 0.5% (w/v) gelatins in PBS/azide; 1% (w/v) BSA in PBS/azide; 5% (w/v) BSA in PBS/azide; 10% (v/v) equine serum in PBS/azide. The additon was then made of 100 μl of cell culture supernatant liquid (primary antibodies) or, respectively, the 1 to 250 diluted sera with incubation for one hour at room temperature in the dark. […]
The results were evaluated as follows: an ELISA on a patient was only rated as positive if both extinctions>0.2 (cut off=0.2 from dummy measurements and correction factor in the case of stray values>0.2) and distinctly higher than the values in comparison with all other peptides.

KPKAAKPKAAKPKAAKPKKAAPKKK (KPKAAKPKAAKPKAAKPKKAAPKKK) [H1-CT]
epitope status for SLE autoantibodies (122 SLE sera tested in ELISA): preferred epitopes of SLE autoantibodies | SLE sera / lupus patients reacting positively in ELISA (SLE sera (80 lupus patients), positive only if both extinctions >0.2 for H1 C terminus and H2B N terminus, sera 1 to 250): 80%
